Data on 60 molecules can be found in PubChem BioAssay AID485344 (National Center for Advancing Translational Sciences (NCATS), 2010).

About 6,900 (2%) of roughly 340,000 compounds were called active. Rule as the data show it: active = inhibition above about 30%; inactive = below that, where a call was filed. Only a part is listed here, and it is no random draw. The source gives no active or inactive call for entries shown without one.

This assay addresses D(2) dopamine receptor (Homo sapiens) (UniProt P14416). The assay is described as follows: HTS Assay for Allosteric Antagonists of the Human D2 Dopamine Receptor: Primary Screen for Antagonists. Also: 0% is about no effect. Conditions: HEK293 TREx D2 cells, calcium flux, dopamine EC80; at 10 µM; stronger effect = higher value. The method, boiled down: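 Tetracycline-induced HEK293 TREx cells expressing D2 receptor forced-coupled to calcium signalling, loaded with no-wash calcium dye. Compounds added and calcium flux read 180 s, then dopamine added at EC80 and read a further 180 s.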
UniProt P14416, sequence (P14416 whole entry, looked up): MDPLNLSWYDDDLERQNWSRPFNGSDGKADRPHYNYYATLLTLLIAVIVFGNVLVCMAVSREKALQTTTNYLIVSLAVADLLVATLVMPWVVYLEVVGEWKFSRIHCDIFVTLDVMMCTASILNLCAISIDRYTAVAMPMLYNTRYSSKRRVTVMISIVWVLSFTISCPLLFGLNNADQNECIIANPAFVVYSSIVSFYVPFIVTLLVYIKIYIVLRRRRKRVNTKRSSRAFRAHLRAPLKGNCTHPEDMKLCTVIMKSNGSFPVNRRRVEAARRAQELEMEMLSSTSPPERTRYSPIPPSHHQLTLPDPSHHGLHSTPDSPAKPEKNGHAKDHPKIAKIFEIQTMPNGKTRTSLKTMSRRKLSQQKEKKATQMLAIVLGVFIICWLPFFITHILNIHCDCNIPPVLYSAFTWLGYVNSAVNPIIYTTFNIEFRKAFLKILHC
On the technique in general: Calcium flux is commonly read through the fluorescence of an indicator in the cells.
A word on the inhibition: it is the change of the read-out against control, counted positive when it falls. In the case of `O=C(CSC1=Nc2ccccc2N=C(c2ccc(F)cc2)C1)Nc1cccc(C(F)(F)F)c1`, the inhibition was 13.8%.

Consider `CCc1ccc(NC(=O)CC2C(=O)N(c3cccc(C)c3)C(=O)N2CCC(C)C)cc1` (stereo not given), for which the inhibition was found to be 8.36%. As for `CCOC(=O)C1CCCN(C(=O)C2CCN(S(=O)(=O)c3c(C)noc3/C=C/c3ccccc3F)CC2)C1` (stereo not given), the figure is 17.9%; as for `O=C(CN1CCN(Cc2ccccc2)CC1)N1CCCc2ccccc21`, active: 32.4%.

With `CCCCC1(C)OC(=O)C(=Cc2ccc(-c3ccc(Cl)c(C(=O)O)c3)o2)C(=O)O1` (stereo not given), the inhibition is active: 41.9%. As to `COc1ccc(CNC(=O)CN(c2ccc(C(C)C)cc2)S(=O)(=O)c2c(C)nn(C)c2C)cc1`, the inhibition was 8.25%. To `COc1ccc(NC(=O)CSc2nc3ccccc3nc2N2CCC(C)CC2)cc1` belongs -6.2%; to `Cc1cccc(-c2noc(CN(C3CCCCC3)S(=O)(=O)c3ccc(F)cc3)n2)c1`, -8.38%; to `CCC(C(=O)OCc1cc(=O)n2nc(C)sc2n1)c1ccccc1` (stereo not given), -26.5%. To `Cn1c(N2CCN(c3ccccn3)CC2)nc2c1c(=O)n(Cc1ccc(Cl)cc1)c(=O)n2C` belongs active: 48.7%; to `COc1ccc2c(c1)-c1nc(NC(=O)c3ccc(OC)c(Br)c3)sc1CC2`, -9.2%; to `COc1ccc(OC)c(NC(=O)c2c(NCc3sccc3C)sc3c2CCCCC3)c1`, -10.2%. As for `Cc1ccc(C(=O)Nc2c(-c3ccccc3)nc3ccccn23)cc1`, the figure is 6.92%. `Cc1nnc(N2CCC(C(=O)Nc3ccc(F)cc3)CC2)c2nn(-c3ccc(Cl)cc3)c(C)c12`: the inhibition is 14.8%.

Regarding `Cc1ccc(C2c3[nH]c4ccccc4c3CCN2C(=O)c2ccccc2Br)cc1` (stereo not given), the inhibition is -3.74%. Consider `CCOc1ccc(-c2nonc2NC(=O)c2ccco2)cc1`, for which the inhibition was 1.25%. To `CC1=C(C(=O)NCc2cccc(Br)c2)C2(CCCCC2)OC1=O` belongs 18.8%; to `CCCCOC(=O)/C(C#N)=C/c1ccc(-c2cccc(C(F)(F)F)c2)o1`, -6.37%. To `CCOc1ccc(NC(=O)CSc2nc3c(oc4ccccc43)c(=O)n2-c2cc(C)cc(C)c2)cc1` belongs -6.1%; to `N/C(=N\OC(=O)c1ccc2c(c1)OCO2)c1ccc(Br)cc1`, active: 46.1%; to `COc1cc(/C=C/c2nc(C#N)c(N3CCCCC3)o2)cc(OC)c1OC`, 0.54%.

Consider `COc1ccc(Br)cc1/C=N/NC(=O)C[n+]1ccccc1`, for which the inhibition is active: 40%. On to `Cc1ccccc1CNC(=O)C1CCN(S(=O)(=O)Cc2ccccc2)CC1`, for which the inhibition turned out to be 8.82%. For `Cc1ncc(CO)c2c1Oc1nc(-c3ccc(F)cc3)nc(SCC(=O)N3CCCCC3)c1C2`, the inhibition was 22.9%. As for `Cc1ccc(CN2C(=O)N(c3ccc(F)cc3)C(=O)C2CC(=O)Nc2ccc(Cl)cc2)cc1` (stereo not given), the figure is -16.4%; as for `Cc1ccc(NC(=O)CSc2nnc(-c3cc4occc4n3C)n2-c2ccccc2C)c(Cl)c1`, 7.84%; as for `COC(=O)CN1C(=O)CSc2ccc(S(=O)(=O)Nc3cccc(Br)c3)cc21`, -1.15%. With `Cc1ccc(C)c(Cn2c3ccccc3c3cnn(CC(=O)NC4CCC(C)CC4)c(=O)c32)c1` (stereo not given), the inhibition was determined as 8.28%.

For the molecule `COc1ccc(NC(=O)CSC2=Nc3ccccc3C3=NC(CCC(=O)NCc4cccs4)C(=O)N23)cc1` (stereo not given), the inhibition turned out to be 3.03%.

On to `O=C(NCCc1ccccc1)C1CCN(c2ncnc3c2nc2n3CCCCC2)CC1`, for which the inhibition was 15.1%. Regarding `Cc1cc2nn(-c3ccccc3)nc2cc1NC(=O)COc1ccc(Cl)cc1`, the inhibition is -21.5%. As to `Cc1nn(-c2ccc(F)cc2)c(-n2cccc2)c1C(=O)N1CCN(c2ccccc2)CC1`, the inhibition is -1.51%. With `CCOc1ccc(Cn2nnc(C(=O)Nc3cccc(SC)c3)c2N)cc1`, the inhibition was -5.86%. To `Cc1cc(NC(=O)c2cc(-c3cccc(Cl)c3)on2)nn1Cc1ccc(Cl)cc1` belongs -2.15%; to `CCCN(CCC)C(=O)Cn1c(=O)n(-c2ccc(C)c(C)c2)c(=O)c2c3c(sc21)CCCCC3`, 4.34%; to `CC1CCC(NC(=O)CCc2cn(Cc3ccccc3Cl)c3ccccc23)CC1` (stereo not given), 13.3%. For the molecule `Cc1nc2ccc(S(=O)(=O)N(CC(=O)Nc3cccc(Cl)c3)Cc3ccccc3)cc2s1`, the inhibition was found to be 4.04%.

`CCOc1ccc(NC(=O)CCn2c(=O)c3cccn3c3cccnc32)cc1`: the inhibition was -4.06%. To `Cc1nn(CC(=O)NCc2ccc(N(C)C)cc2)c(=O)c2c(C)n(-c3ccc(Cl)cc3)nc12` belongs -10.1%. As for `COc1ccc(CNC(=O)Cc2c(C)c3c(cc(C)c4c(C)coc43)oc2=O)cc1OC`, the figure is -15.1%. With `Cc1nc2cccnc2n1C1CCN(S(=O)(=O)N(C)C)CC1`, the inhibition was -5.62%. Consider `N/C(=N\N=C/c1ccc(F)cc1)N/N=C\c1ccc(F)cc1`, for which the inhibition is active: 40.3%. `CCOC(=O)c1cc(-c2ccc(C)cc2)n(CC(=O)Nc2ccccc2F)c1C`: the inhibition came out at 9.69%.

As for `COc1ccc(Br)c2c1-c1nc(NC(=O)c3ccccc3F)sc1C2`, the inhibition is 0.339%. As for `COc1ccc(CCCc2nnc(SCC(=O)Nc3cc(C)ccc3C)o2)cc1`, the figure is 5.71%. To `COC(=O)c1ccccc1NC(=O)c1ccc(COc2cc(C)cc(C)c2)o1` belongs 8.38%. On to `CCc1ccc(-c2[nH]nc3nc(-c4ccc(OC)cc4)cc(C(=O)NCCCOC)c23)cc1`, for which the inhibition is -11.2%.

As to `CC(=O)N1CCC2(CC1)OC(=O)C(C)=C2C(=O)Nc1cc(C)ccc1C`, the inhibition was -5.06%. In the case of `CCOC(=O)c1cc(-c2ccc(C)o2)n[nH]1`, the inhibition is active: 30.4%. Consider `O=C(c1ccccc1Cl)N(Cc1ccco1)c1ccccn1`, for which the inhibition was -7.52%. As for `CCCN(C(=O)c1cc2ccc3cccnc3c2[nH]1)c1ccc(F)cc1`, the figure is 6.76%; as for `COC(=O)c1sc2cccc(F)c2c1S(=O)(=O)Nc1ccc(N(C)C)cc1`, -5.05%. To `Cc1cc(Br)ccc1NC(=O)Cn1cnc2sc(C)c(S(=O)(=O)N3CCN(C)CC3)c2c1=O` belongs -0.448%; to `COc1ccc(-c2nc(SCC(=O)N3CCN(c4ccc(F)cc4)CC3)n[nH]2)cc1`, 0.583%; to `CCCCOc1ccc(CNC(=O)Cc2ccc(NC(=O)N3CCCCc4ccccc43)cc2)cc1`, 6.34%.

Regarding `CCn1c(=O)n(-c2ccc(F)cc2)c(=O)c2sc3ccccc3c21`, the inhibition was -4.01%. To `CC(C)(C)OC(=O)N1CCC(c2c(C(=O)N3CCN(c4ccccc4)CC3)cnn2-c2ccccc2)CC1` belongs -1.47%; to `CCOC(=O)c1c(Nc2ccc(F)cc2)nnc(-c2ccccc2)c1-c1ccccc1`, 2.97%. Take `CCOc1ccc(C(=O)NCC(c2ccc3c(c2)OCO3)N2CCN(c3ccccc3F)CC2)cc1` (stereo not given): the inhibition was determined as 13.2%. To `COc1ccc(OC)c(CCNC(=O)c2c(C)nn(-c3ccc(F)cc3)c2-n2cccc2)c1` belongs 3.75%.
